What is called % Inhibition is the change of the read-out against control, counted positive when it falls.

SMILES strings stand for the structures. The whole screen tested about 150,000 compounds, of which about 540 (0.36%) showed an effect of 50% or more. This is one part of the list.

The test system of the experiment is Plasmodium falciparum. Description: Primary screen in NF54 nanoGlo assay, in single point, at 2uM, 72h; a lower Z score goes with more inhibition. In kind it is functional, Erythrocyte. To be noted: timepoint 72 hour.
On to `Cc1cc(NC2CN(c3ccncn3)C2)nc(C2CCC2)n1`, for which the “% Inhibition” value is -2% and the Z score worked out at 0.27.
For `COc1ccccc1OC1(C(=O)O)CCN(c2nnc(C(C)C)s2)CC1`, in that order: -11% and 1.91.
As for `O=C(c1ccccc1F)N(CCN1CCOCC1)C[C@H]1CN(Cc2c(F)cccc2F)CCO1`, the “% Inhibition” value was -5% and the Z score was determined as 0.5.
Regarding `Cc1cc2n(n1)CCN(Cc1ccc(Cl)o1)C2`, the “% Inhibition” value is recorded as -10% and the Z score stood at 1.47.
For `CC1CC(=O)N(C)c2ccc(NC(=O)N3CCc4ccccc4C3C(C)C)cc21` (stereo unspecified), in that order: 2% and -0.35.
The matching figures for `c1ccc(Nc2nc(-c3ccccc3)cc(-c3ccccc3)n2)cc1`: 37% and -4.83.
In the case of `CCOC(=O)C[C@H]1COCCN1C(=O)c1cn(CCC2CCCCC2)nn1`, the “% Inhibition” value is recorded as 10% and the Z score is listed as -1.2.
For `C[C@H]1CN(C(=O)Cc2ccc(F)cc2Cl)C[C@]1(O)C1CC1`, in that order: -3% and 0.43.
The matching figures for `COc1ccccc1-c1c(C)nn2c(=O)c3c([nH]c12)CCCC3`: -13% and 2.4.
For `CCCCC(=O)N1CCC2(CC1)N[C@H](C(=O)N1CCCC1)Cc1[nH]cnc12`, in that order: -2% and 0.27.
As to `Cc1cnc(C2CC2)n1[C@H]1CCN(C(=O)CCc2ccccc2)C1`, the “% Inhibition” value is reported as -15% and the Z score is 1.92.
The matching figures for `COCCn1ccnc1-c1nc2c(cnn2Cc2cccnc2)[nH]1`: -7% and 1.08.
The matching figures for `Cc1cc(C)n(CC(=O)NCc2ccc(Cl)cc2)c(=O)c1-c1nc(-c2cccc(Cl)c2)no1`: -15% and 1.47.
The matching figures for `CC1CCCCN1C(=O)CC1Cn2ncc(-c3ccc(Cl)cc3)c2NC1=O` (stereo unspecified): -17% and 1.95.
In the case of `O=S(=O)(Cc1ccccc1)NCC[C@H](O)C1CC1`, the “% Inhibition” value is -6% and the Z score is 0.92.
Take `CCOc1ccc(Cl)cc1CN(C)C(=O)N[C@H]1COC[C@@H]1O`: the “% Inhibition” value was -5% and the Z score is 0.96.
For `CC(C)Cc1ccc(S(=O)(=O)N2CCC[C@H]2c2nnc(C(=O)Nc3ccc4c(c3)OCO4)s2)cc1`, in that order: -8% and 1.56.
For `CCc1nsc(NCCc2ccccc2N2CCOCC2)n1`, the “% Inhibition” value was 3% and the Z score is recorded as -0.62.
For `C=CCOc1ccccc1CN(CC1CCN(CCOC)CC1)C[C@H]1CCCO1`, in that order: 0% and 0.04.
For `COc1ccc(C2=CCN(CC(=O)Nc3ccc(F)cc3F)C2)cc1`, in that order: 27% and -3.05.
The matching figures for `CC(C)(C)O[C@@H](C(=O)N1CC2(CNC(=O)O2)C1)c1ccccc1`: 4% and -0.46.
For `O=S(=O)(NCc1ccc(N2CCCC2)cc1)c1cccc(Br)c1`, the “% Inhibition” value was -4% and the Z score was 0.6.
As for `CNCC#CCOc1cccc(C)c1C`, the “% Inhibition” value is given as -6% and the Z score was determined as 0.63.
`Cn1cc(CN2CCCC[C@@H]2CCc2cccc(O)c2)cc1C#N`: the “% Inhibition” value is reported as -17% and the Z score is reported as 1.46.
As to `COc1nc2c(cc1CN1CC[C@]3(OC)CC[C@@H](O)C[C@H]13)C(=O)N(C(C)C)C2`, the “% Inhibition” value was found to be 13% and the Z score is given as -1.72.
On to `OCC[C@H]1CN(Cc2c(Cl)cncc2Cl)CCN1Cc1ccco1`, for which the “% Inhibition” value was -10% and the Z score was 1.31.
With `C#CCN1CCN(Cn2nnc3ccccc3c2=O)CC1`, the “% Inhibition” value is listed as -3% and the Z score is 0.25.
For `Cc1cc(Br)cc(C)c1OCCOCCN(C)C`, in that order: -3% and 0.47.
For `COc1ccc(NC(=O)CN2CCCC[C@@H]2C)cc1S(=O)(=O)N1CCCCC1`, in that order: -8% and 1.53.
For `CC(C)(C)CN1C(=O)C2(CCN(CC3CC3)CC2)Nc2ccccc21`, in that order: -9% and 1.76.
Turning to `CC(=O)N[C@H]1CN(Cc2cc(C(N)=O)oc2C(C)(C)C)C[C@@H]1C1CC1`, the “% Inhibition” value is listed as -11% and the Z score is 1.92.
The matching figures for `Cc1cccc(CN(Cc2ccccn2)Cc2n[nH]c3c2COCC3)c1`: 2% and -0.27.
Take `CCn1c(=O)c(-c2nc(-c3ccc(OC(C)C)cc3)no2)c(O)c2ccccc21`: the “% Inhibition” value is listed as -14% and the Z score is given as 1.89.
For `CCN(CCC#N)C(=O)Cn1ccnc1C(C)C`, in that order: -9% and 1.
Regarding `COCC(=O)N[C@@H](Cc1ccccc1)c1nc2ccccc2n1Cc1ccccc1F`, the “% Inhibition” value was 6% and the Z score is -0.6.
For `Cc1nccn1-c1ccnc(C(=O)NCc2nnc(C3CC3)s2)c1`, in that order: -7% and 0.94.
Consider `NC[C@H]1CCCN1C(=O)c1cccc(-n2nccc2C(F)(F)F)c1`, for which the “% Inhibition” value worked out at 12% and the Z score is -1.14.
With `COc1ccc(N2CCN(C(=O)CN(C)c3nnc(N4CCCC4=O)s3)CC2)cc1`, the “% Inhibition” value is -5% and the Z score was 0.88.
The matching figures for `Cc1ccc(S(=O)(=O)NCc2ccc(C(=O)Nc3cnc4ccccc4c3)cc2)cc1C`: -14% and 2.07.
As for `CCCc1nc(NCCc2n[nH]c(N)n2)no1`, the “% Inhibition” value is given as 3% and the Z score is on record as -0.54.
For `CC[C@@]1(C)CCN(C(=O)CS(=O)(=O)CC)C1`, in that order: -5% and 0.77.
The matching figures for `CC(=O)Oc1c(-c2ccc(NS(=O)(=O)c3ccc(C)cc3)cc2)c(-c2ccc(N(C)C)cc2)nn1-c1ccc(F)cc1`: 2% and -0.24.
In the case of `CC(C)CC(=O)Nc1nnc([C@H]2CC(=O)N(c3ccc(Cl)cc3)C2)o1`, the “% Inhibition” value is recorded as -3% and the Z score stood at 0.37.

The record behind these values is ChEMBL document CHEMBL4888484, “Replenishing the malaria drug discovery pipeline: Screening and hit evaluation of the MMV Hit Generation Library 1 (HGL1) against asexual blood stage Plasmodium falciparum ,using a nano luciferase reporter read-out” (2022).
